# According to PubChem BioAssay (NCATS):
# Inconclusive results, whose numbers are uncertain, are shown with a selection of clear calls. For some assays here: Where the call is inconclusive, the potency comes from a doubtful curve fit. Activity calls are given as the source filed them. Unless noted, the call rests on the fitted dose curve; in most records, active means well fitted curve in the direction sought with a large enough effect; inconclusive means small, poorly fitted or top-dose-only effect, or another doubt; inactive means no such curve, though single readings can be large; an effect the other way counts as inactive or inconclusive.
# Legend:
# [1] = target: 3',5'-cyclic-AMP phosphodiesterase 4B (Homo sapiens) (UniProt Q07343); assay: qHTS Assay for Inhibitors of PDE-IV (AID 607; active means well fitted activation curve with a large enough effect in the main read-out, with a control signal flat, not every such curve was filed as active; inconclusive means small, poorly fitted or top-dose-only effect, or effect the other way, or a change in a side signal); conditions: HEK293 ACTOne CNG channel cells, membrane potential fluorescence; activation (PDE inhibition): at 22.9 µM (top of the series)
# Procedure, shortened: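 Live HEK293 cells with a modified cyclic nucleotide-gated (CNG) channel report intracellular cAMP via membrane-potential dye fluorescence (ex 535/em 590 nm). Endogenous PDE-IV was targeted. Compounds were tested at up to 22.9 uM final; RO 20-1724 100 uM served as control.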
# [2] = target: Cytochrome P450 2C19 (Homo sapiens) (UniProt P33261); assay: qHTS Assay for Inhibitors and Substrates of Cytochrome P450 2C19 (AID 899); further: nearly all actives have a fitted effect of over 60% in size
# Procedure, shortened: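 In 50mM KPO4, the reaction held 5nM enzyme and KM-level (10uM) Luciferin-H EGE; it ran 60 min at 37C after NADPH regeneration and a 10 min compound preincubation. Luminescence values were scaled to 57uM ketoconazole as complete inhibition.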
# [3] = qHTS Assay for Identification of Small Molecule Agonists for Hypoxia Response Element Signaling Pathway (AID 914; active means well fitted activation curve with a large enough effect in the signal ratio, with a control signal flat, not every such curve was filed as active; inconclusive means small, poorly fitted or top-dose-only effect, or effect the other way, or a change in a side signal; the % refers to the signal ratio; on activation: top concentration of the series differs between compounds; % of control where 0% means no effect); conditions: ME-180 (cervical carcinoma) HRE-bla reporter, beta-lactamase ratio, CoCl2, 17 h; activation: active compounds read high
# Procedure, shortened: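 Compounds in a titration series were added to ME-180 reporter cells alongside an EC50 level of CoCl2. After 17 hours, beta-lactamase activity was read as the 460nm/530nm emission ratio of CCF4, giving AC50 values.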
# [4] = Primary qHTS for small molecule stabilizers of the endoplasmic reticulum resident proteome: Secreted ER Calcium Modulated Protein (SERCaMP) assay (AID 1508630); conditions: SH-SY5Y GLuc-SERCaMP (Gaussia luciferase released on ER calcium loss) secretion, thapsigargin, luminescence; activity change, negative = inhibition: at 38.4 µM (top of the series) unless noted; on activity change, negative = inhibition: on the % scale 0 is the no-effect control and ±100 the full control effect
# Procedure, shortened: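 GLuc-SERCaMP-expressing SH-SY5Y cells, pretreated 16 h with compound, are challenged with thapsigargin to empty ER calcium stores; after 4 h, coelenterazine is added directly to the medium and luminescence is imaged.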
# [5] = target: Cytochrome P450 2D6 (Homo sapiens) (UniProt P10635); assay: qHTS Assay for Inhibitors and Substrates of Cytochrome P450 2D6 (AID 891);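 further: luciferin methyl ether substrate demethylated by CYP2D6 with NADPH regeneration; nearly all actives have a fitted effect of over 60% in size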
# Procedure, shortened: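 Human CYP2D6 (5 nM) with 30 uM Luciferin-ME EGE (at Km) in 100 mM KPO4, compound preincubated 10 min, then NADPH regeneration system for 60 min at room temperature. Luciferin read by luminescence; normalized to 1.43 uM quinidine.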
# [6] = target: Cytochrome P450 3A4 (Homo sapiens) (UniProt P08684); assay: qHTS Assay for Inhibitors and Substrates of Cytochrome P450 3A4 (AID 884); conditions: recombinant CYP3A4, Luciferin-PPXE luminescence; activity change, negative = inhibition: at 57.1 µM (top of the series); further: nearly all actives have a fitted effect of over 50% in size; on activity change, negative = inhibition: on the % scale 0 is the no-effect control and ±100 the full control effect
# Procedure, shortened: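 20 nM human CYP3A4 with 25 uM Luciferin-PPXE (at KM) in 200 mM KPO4, preincubated 10 min with compound; NADPH regeneration started a 60 min RT reaction. Luciferin detected by luminescence, normalized to 57 uM ketoconazole as full inhibition.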
# [7] = target: Cytochrome P450 3A4 (Homo sapiens) (UniProt P08684); assay: qHTS Assay for Activators of Cytochrome P450 3A4 (AID 885); further: nearly all actives have a fitted effect of over 65% in size
# Procedure, shortened: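 Quantitative HTS format: compounds preincubated with 20nM human CYP3A4 and Luciferin-PPXE substrate at KM, reaction started by NADPH regeneration, stopped after 60 min, luciferase luminescence read 20 min later.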
# [8] = target: Cytochrome P450 2C9 (Homo sapiens) (UniProt P11712); assay: qHTS Assay for Inhibitors and Substrates of Cytochrome P450 2C9 (AID 883); further: nearly all actives have a fitted effect of over 60% in size
# Procedure, shortened: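 CYP2C9 deoxyluciferin hydroxylation, 37C, 60 min with NADPH regeneration; 10nM enzyme, 100uM Luciferin-H (KM). Glo detection reagent stopped reaction; luminescence normalized to sulphaphenazole (57uM) full inhibition.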
# [9] = system: NanoLuc luciferase (engineered Oplophorus gracilirostris luciferase); assay: Biochemical NLuc saturation counterscreen for small molecule modulators of PMP22 gene expression - Nano-Glo assay (AID 1508638); on activity change, negative = inhibition: on the % scale 0 is the no-effect control and ±100 the full control effect
# Procedure, shortened: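 Cell-free NLuc counterscreen: secreted NLuc from filtered conditioned medium of S16 Schwann cells is added to Nano-Glo substrate preincubated 5 min with pinned compounds. After 10 min at room temperature in the dark, luminescence is imaged on a CCD camera.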
# [10] = system: NanoLuc luciferase (engineered Oplophorus gracilirostris luciferase); assay: Biochemical coelenterazine-based NLuc counterscreen for small molecule modulators of PMP22 gene expression - Km assay (AID 1508639);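 on activity change, negative = inhibition: substrate at 15 µM coelenterazine with 5 min compound preincubation before enzyme addition; on the % scale 0 is the no-effect control and ±100 the full control effect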
# Procedure, shortened: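 Secreted NLuc, taken as filtered conditioned medium from S16 cells, was added after compounds had been pre-incubated 5 min with substrate (15 uM coelenterazine, sodium ascorbate, NaCl, 0.1% Triton X in PBS pH7.4); luminescence was read after 10 min at room temperature.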
# Potency means the concentration at half of the fitted maximal effect; tags describe the fitted curve by direction and shape or compound fluorescence and quenching.
# Chain of UniProt Q07343 (Q07343 whole entry, looked up): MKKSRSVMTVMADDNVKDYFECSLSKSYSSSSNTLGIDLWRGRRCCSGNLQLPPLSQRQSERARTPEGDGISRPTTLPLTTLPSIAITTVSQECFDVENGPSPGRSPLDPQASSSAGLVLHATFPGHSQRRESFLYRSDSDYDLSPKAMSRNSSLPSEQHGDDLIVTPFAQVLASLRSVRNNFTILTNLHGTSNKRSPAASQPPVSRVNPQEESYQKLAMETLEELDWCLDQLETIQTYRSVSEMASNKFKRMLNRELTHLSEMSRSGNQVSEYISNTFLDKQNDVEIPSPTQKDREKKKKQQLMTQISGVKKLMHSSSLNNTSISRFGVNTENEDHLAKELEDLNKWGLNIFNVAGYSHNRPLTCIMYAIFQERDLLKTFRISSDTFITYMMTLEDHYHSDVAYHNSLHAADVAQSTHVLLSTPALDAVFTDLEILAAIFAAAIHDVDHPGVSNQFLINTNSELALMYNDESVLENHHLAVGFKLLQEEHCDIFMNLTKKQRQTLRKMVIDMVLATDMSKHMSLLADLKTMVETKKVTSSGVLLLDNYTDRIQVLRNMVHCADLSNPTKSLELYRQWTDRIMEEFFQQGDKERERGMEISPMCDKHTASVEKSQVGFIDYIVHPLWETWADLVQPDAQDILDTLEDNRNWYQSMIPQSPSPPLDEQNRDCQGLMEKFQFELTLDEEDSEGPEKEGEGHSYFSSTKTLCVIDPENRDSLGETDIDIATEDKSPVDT
# Chain of UniProt P08684 (P08684 whole entry, looked up): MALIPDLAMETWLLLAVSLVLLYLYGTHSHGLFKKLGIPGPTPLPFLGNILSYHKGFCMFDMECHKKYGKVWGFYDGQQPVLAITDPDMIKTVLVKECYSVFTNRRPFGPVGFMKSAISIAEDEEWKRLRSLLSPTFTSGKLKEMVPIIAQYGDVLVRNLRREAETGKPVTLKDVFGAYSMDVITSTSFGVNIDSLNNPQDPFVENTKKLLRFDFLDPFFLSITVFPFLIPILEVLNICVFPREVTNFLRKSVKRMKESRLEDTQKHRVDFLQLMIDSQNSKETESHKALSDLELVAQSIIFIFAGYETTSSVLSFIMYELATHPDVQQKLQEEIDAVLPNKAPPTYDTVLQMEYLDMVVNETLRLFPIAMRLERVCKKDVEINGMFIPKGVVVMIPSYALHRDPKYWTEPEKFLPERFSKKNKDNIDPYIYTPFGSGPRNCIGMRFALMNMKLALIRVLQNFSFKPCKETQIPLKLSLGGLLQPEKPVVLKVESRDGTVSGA
# Chain of UniProt P33261 (P33261 whole entry, looked up): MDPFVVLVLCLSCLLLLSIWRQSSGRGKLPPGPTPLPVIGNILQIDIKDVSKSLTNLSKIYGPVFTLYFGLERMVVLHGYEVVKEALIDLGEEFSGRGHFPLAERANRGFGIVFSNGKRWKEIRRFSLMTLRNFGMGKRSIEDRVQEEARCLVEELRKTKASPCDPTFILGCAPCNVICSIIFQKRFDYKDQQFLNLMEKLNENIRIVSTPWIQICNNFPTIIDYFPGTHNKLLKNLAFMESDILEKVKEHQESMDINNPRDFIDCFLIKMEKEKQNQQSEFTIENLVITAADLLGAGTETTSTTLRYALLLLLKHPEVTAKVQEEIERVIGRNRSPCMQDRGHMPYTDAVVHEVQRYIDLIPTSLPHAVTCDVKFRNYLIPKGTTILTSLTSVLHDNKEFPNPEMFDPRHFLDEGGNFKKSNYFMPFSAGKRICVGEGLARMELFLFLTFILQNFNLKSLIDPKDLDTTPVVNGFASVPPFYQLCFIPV
# Chain of UniProt P10635 (P10635 whole entry, looked up): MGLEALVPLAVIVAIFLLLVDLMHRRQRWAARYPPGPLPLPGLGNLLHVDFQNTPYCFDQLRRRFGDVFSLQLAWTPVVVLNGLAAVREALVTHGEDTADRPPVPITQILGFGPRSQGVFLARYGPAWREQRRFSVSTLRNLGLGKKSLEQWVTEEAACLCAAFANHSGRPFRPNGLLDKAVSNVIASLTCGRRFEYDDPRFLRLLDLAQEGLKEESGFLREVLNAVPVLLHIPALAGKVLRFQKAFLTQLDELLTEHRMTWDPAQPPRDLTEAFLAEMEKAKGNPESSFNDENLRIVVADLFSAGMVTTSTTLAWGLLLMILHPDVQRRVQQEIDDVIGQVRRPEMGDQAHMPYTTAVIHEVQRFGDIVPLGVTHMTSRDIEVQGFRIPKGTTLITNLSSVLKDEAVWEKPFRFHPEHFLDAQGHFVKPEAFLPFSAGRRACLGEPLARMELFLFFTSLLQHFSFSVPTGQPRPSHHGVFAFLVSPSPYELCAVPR
# Chain of UniProt P11712 (P11712 whole entry, looked up): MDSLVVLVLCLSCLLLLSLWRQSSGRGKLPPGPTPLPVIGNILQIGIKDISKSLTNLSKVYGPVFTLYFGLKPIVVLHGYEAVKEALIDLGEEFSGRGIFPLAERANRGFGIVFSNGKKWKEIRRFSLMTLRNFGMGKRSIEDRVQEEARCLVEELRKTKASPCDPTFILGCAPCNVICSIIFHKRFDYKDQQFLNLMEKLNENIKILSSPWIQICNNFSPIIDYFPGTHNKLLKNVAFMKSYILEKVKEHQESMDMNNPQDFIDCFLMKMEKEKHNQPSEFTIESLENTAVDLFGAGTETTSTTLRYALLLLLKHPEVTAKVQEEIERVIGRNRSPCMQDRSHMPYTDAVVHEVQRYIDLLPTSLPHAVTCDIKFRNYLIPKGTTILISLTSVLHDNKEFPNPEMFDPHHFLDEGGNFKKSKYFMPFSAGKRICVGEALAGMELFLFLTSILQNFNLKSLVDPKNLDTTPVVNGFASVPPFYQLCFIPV
smiles,measurement,setting,value
Cc1nc2cnc(N3CCNCC3)nc2n(Cc2ccc(F)cc2)c1=O,Potency,[1],"inconclusive: 1.26 µM [activator, full curve]"
same,Potency,[2],inactive
same,Potency,[3],"inconclusive: 3.98 µM [activator, single point]"
same,Potency,[4],"inconclusive: 8.91 µM [inhibitor, partial curve, poor fit]"
CC(=O)N1CCC2(CCCN(c3ccccc3)C2)CC1,Potency,[3],"inconclusive: 1 µM [activator, single point]"
same,Potency,[4],inactive
O=c1c(-c2cccs2)nc2cncnc2n1Cc1ccc(F)cc1,Potency,[5],"inconclusive: 0.631 µM [inhibitor, full curve, poor fit]"
same,Potency,[4],inactive
CN(C)c1ncnc2ccc(-c3ccccc3C#N)cc12,Potency,[6],"inconclusive: 1.58 µM [inhibitor, full curve]"
same,Potency,[4],inactive
COc1ccc(NC(=O)N2CC[C@@]3(CCCN(C(=O)c4cc(C(F)(F)F)cc(C(F)(F)F)c4)C3)C2)cc1,Potency,[7],inactive
same,Potency,[4],"inconclusive: 10 µM [inhibitor, partial curve, poor fit]"
CN1CCN(c2ncc3nc(CCc4ccccc4)c(=O)n(C)c3n2)CC1,Potency,[7],"inconclusive: 20 µM [activator, partial curve]"
same,Potency,[4],"inconclusive: 28.2 µM [inhibitor, single point]"
CN1CCC2(CC1)CCN(C(=O)c1cc(C(F)(F)F)cc(C(F)(F)F)c1)CC2,Potency,[3],"inconclusive: 0.158 µM [activator, single point]"
same,Potency,[4],inactive
CN1CCN(c2ncnc3ccc(-c4cccc(C#N)c4)cc23)CC1,Potency,[1],"inconclusive: 15.8 µM [activator, single point]"
same,Potency,[3],"inconclusive: 3.16 µM [inhibitor, single point]"
same,Potency,[4],"inconclusive: 28.2 µM [inhibitor, single point]"
COC(=O)N1CCC2(CC1)CN(C(c1ccccc1)c1ccccc1)C2,Potency,[6],inactive
same,Potency,[4],inactive
CN(C)c1ncc2nc(-c3ccc(F)cc3)c(=O)n(CCC#N)c2n1,Potency,[5],"inconclusive: 0.501 µM [inhibitor, full curve]"
same,Potency,[3],"inconclusive: 5.01 µM [activator, single point]"
same,Potency,[4],inactive
CCNc1ncc2ncc(=O)n(Cc3cccc(OC)c3)c2n1,Potency,[1],"inconclusive: 10 µM [activator, partial curve]"
same,Potency,[3],"inconclusive: 3.16 µM [inhibitor, single point]"
same,Potency,[4],"inconclusive: 28.2 µM [inhibitor, single point]"
N#CCCn1c(=O)c(CCc2ccccc2)nc2cnc(Oc3ccccc3)nc21,Potency,[3],"inconclusive: 3.16 µM [inhibitor, partial curve]"
same,Potency,[4],"inconclusive: 31.6 µM [inhibitor, single point]"
CN(C)C(=O)c1ccc(-c2cncnc2NCc2cccnc2)cc1,Potency,[6],active: 5.01 µM
same,Potency,[2],active: 2.51 µM
same,Potency,[4],inactive
CCCCC#Cc1nc(NC)c2ncn([C@@H]3O[C@@H](CO)[C@H](O)[C@H]3O)c2n1,Potency,[8],active: 0.631 µM
same,Potency,[2],"inconclusive: 3.16 µM [inhibitor, full curve]"
same,Potency,[4],inactive
COc1ncc2nc(-c3cccs3)c(=O)n(CCC#N)c2n1,activation,[3],inactive: 25.6%
same,Potency,[4],"inconclusive: 25.1 µM [inhibitor, single point]"
N#C[C@H](Cc1ccc(O)cc1)c1ccc(O)cc1,Potency,[2],"inconclusive: 2 µM [inhibitor, partial curve]"
same,Potency,[4],"inconclusive: 2.24 µM [inhibitor, full curve, poor fit]"
CC(C)NC(=O)N1CCC2(CC1)CCN(C(=O)c1cnccn1)CC2,Potency,[3],"inconclusive: 5.01 µM [activator, single point]"
same,Potency,[4],"inconclusive: 5.62 µM [inhibitor, partial curve, poor fit]"
COc1ccc(OC)c(NC(=O)c2c(NCc3sccc3C)sc3c2CCCCC3)c1,Potency,[9],"inconclusive: 21.7 µM [inhibitor, partial curve]"
same,Potency,[10],active: 13.7 µM
CCCSc1ncc(Cl)c(C(=O)Nc2sc3c(c2C(=O)NCC)CCCC3)n1,Potency,[9],inactive
same,Potency,[10],inactive
COc1cccc(NC(=O)N(Cc2cn(C)c3ccccc23)C2CCCCC2)c1,Potency,[9],"inconclusive: 21.7 µM [inhibitor, partial curve]"
same,Potency,[10],"inconclusive: 19.3 µM [inhibitor, partial curve]"
CC(=O)c1ccc(N2CCN(S(=O)(=O)c3cc(-c4onc(C)c4C)ccc3C)CC2)cc1,Potency,[9],"inconclusive: 19.3 µM [inhibitor, partial curve]"
same,Potency,[10],"inconclusive: 27.3 µM [inhibitor, single point]"
COc1cccc(NS(=O)(=O)c2cc(-c3cnc(C4CC4)o3)ccc2C)c1,Potency,[9],"inconclusive: 19.3 µM [inhibitor, partial curve]"
same,Potency,[10],active: 15.3 µM
O=C(NCCSc1c[nH]c2ccccc12)c1ccccc1Cl,Potency,[9],"inconclusive: 21.7 µM [inhibitor, partial curve]"
same,Potency,[10],"inconclusive: 17.2 µM [inhibitor, partial curve]"
CC(=O)c1ccc(NC(=O)CSC2=Nc3ccccc3N=C(c3ccc(F)cc3)C2)cc1,Potency,[9],"inconclusive: 21.7 µM [inhibitor, partial curve]"
same,Potency,[10],"inconclusive: 5.44 µM [inhibitor, full curve]"
Cc1ccc(NC(=O)N(Cc2cn(C)c3ccccc23)C2CCCCC2)cc1C,Potency,[9],active: 13.7 µM
same,Potency,[10],"inconclusive: 10.9 µM [inhibitor, partial curve]"
O=C(CSc1c2c(nc3ccc(Cl)cc13)CCCC2)NCc1ccccc1Cl,Potency,[9],"inconclusive: 21.7 µM [inhibitor, partial curve]"
same,Potency,[10],"inconclusive: 15.3 µM [inhibitor, partial curve, poor fit]"
Cc1oc(-c2ccc(Cl)cc2)nc1CN1CCCC(C(=O)NCc2ccccc2)C1 (stereo not given),Potency,[9],"inconclusive: 24.3 µM [inhibitor, partial curve, poor fit]"
same,Potency,[10],"inconclusive: 24.3 µM [inhibitor, partial curve, poor fit]"
CCOC(=O)c1sc2ccccc2c1S(=O)(=O)N1CCN(c2cccc(OC)c2)CC1,Potency,[9],inactive
same,Potency,[10],inactive
COc1ccccc1N1CCN(c2ncnc3c2cnn3-c2cc(Cl)ccc2C)CC1,Potency,[9],"inconclusive: 24.3 µM [inhibitor, partial curve, poor fit]"
same,Potency,[10],"inconclusive: 27.3 µM [inhibitor, partial curve, poor fit]"
CC(=O)Nc1cc(NC(C)=O)cc(-c2nc3ccccc3[nH]2)c1,Potency,[9],"inconclusive: 21.7 µM [inhibitor, partial curve]"
same,Potency,[10],"inconclusive: 21.7 µM [inhibitor, partial curve]"
Cc1c(C(=O)Nc2ccccc2Br)oc2ccc(S(=O)(=O)N3CCCCC3)cc12,Potency,[9],inactive
same,Potency,[10],inactive
CCc1ccc(-c2cc(C)no2)cc1S(=O)(=O)NCc1ccc(OC)cc1,Potency,[9],"inconclusive: 24.3 µM [inhibitor, partial curve]"
same,Potency,[10],"inconclusive: 43.2 µM [inhibitor, partial curve, poor fit]"
COc1cccc(-c2cc(C(=O)Nc3cc(OC)c(OC)c(OC)c3)on2)c1,Potency,[9],"inconclusive: 19.3 µM [inhibitor, partial curve]"
same,Potency,[10],active: 10.9 µM
Cc1ccc(Cn2c(C)c3cnn(CC(=O)NCc4ccccc4)c(=O)c3c2C)cc1,Potency,[9],"inconclusive: 19.3 µM [inhibitor, partial curve]"
same,Potency,[10],"inconclusive: 34.3 µM [inhibitor, single point]"
COc1ccc(NC(=O)c2c(NCc3ccc(C)o3)sc3c2CCCCC3)c(OC)c1,Potency,[9],"inconclusive: 21.7 µM [inhibitor, partial curve]"
same,Potency,[10],"inconclusive: 4.85 µM [inhibitor, full curve]"
Fc1ccc(F)c(Nc2c3c(nc4ccc(Cl)cc24)CCC3)c1,Potency,[9],"inconclusive: 24.3 µM [inhibitor, partial curve]"
same,Potency,[10],"inconclusive: 27.3 µM [inhibitor, single point]"
COC(=O)c1ccc(NC(=O)CSc2nc(=O)n(Cc3ccco3)c3c2CCC3)cc1,Potency,[9],"inconclusive: 24.3 µM [inhibitor, partial curve]"
same,Potency,[10],"inconclusive: 19.3 µM [inhibitor, partial curve]"
COc1ccc(Br)cc1CC1C(=O)Nc2ccccc21 (stereo not given),Potency,[9],"inconclusive: 27.3 µM [inhibitor, partial curve]"
same,Potency,[10],"inconclusive: 27.3 µM [inhibitor, single point]"
COc1c(Cl)cc(Cl)cc1/C=C(\C#N)c1nc2ccccc2[nH]1,Potency,[9],"inconclusive: 3.43 µM [inhibitor, full curve]"
same,Potency,[10],"inconclusive: 1.72 µM [inhibitor, full curve]"
Cc1ccc(C)c(N2CCN(CCCNC(=O)c3ccc4nc(C(C)C)oc4c3)CC2)c1,Potency,[9],"inconclusive: 24.3 µM [inhibitor, partial curve]"
same,Potency,[10],"inconclusive: 19.3 µM [inhibitor, partial curve]"
Cc1ccc(Nc2c3c(nc4ccccc24)CCC3)cc1F,Potency,[9],inactive
same,Potency,[10],"inconclusive: 30.6 µM [inhibitor, single point]"
Cc1c(C(=O)Nc2ccc(F)cc2)oc2ccc(S(=O)(=O)N3CCCCCC3)cc12,Potency,[9],inactive
same,Potency,[10],inactive
CCOc1ccc(-c2nc(CSCC(=O)NCCc3ccccc3)c(C)o2)cc1,Potency,[9],"inconclusive: 27.3 µM [inhibitor, partial curve, poor fit]"
same,Potency,[10],"inconclusive: 21.7 µM [inhibitor, partial curve]"
COc1cccc(NC(=O)CCCn2c(=O)c3cccn3c3cccnc32)c1,Potency,[9],"inconclusive: 21.7 µM [inhibitor, partial curve]"
same,Potency,[10],"inconclusive: 21.7 µM [inhibitor, partial curve]"
